Data published in the supplement of paper PMC10126150.
Sequences with one replicate were seen in a single cluster, so their values are uncertain.

Tested on: ATP
Test: switch fluorescence ratio, 500 uM ATP over buffer (Cy3 cluster intensity, sum of 5 cycles each) (fold (ratio)); higher = stronger signal-on switching upon ATP binding; sequences stand for … in TCGTCGGCAGCGTCAGATGTGTATAAGAGACAGTTTTTTTTTTTTTTTTTTTTTTTTT…TC
Details: aptamer strand: ATP DNA aptamer (quencher-CACCTGGGGGAGTATTGCGGAGGAAGG + anchor), 100 nM annealed; ATP concentration: 500 uM; one replicate
Procedure, shortened: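 Imaging in selection buffer was followed by imaging after 15 min with 500 uM ATP at 22 °C, for Cy3-labelled switching-strand clusters annealed to 100 nM quencher-labelled ATP aptamer on a modified Illumina MiSeq flow-cell. Five of these buffer/ATP cycles ran, separated by NaOH stripping and re-annealing. The fluorescence ratio per cluster is summed target-cycle over summed buffer-cycle Cy3 intensity, averaged per switch-domain sequence; clusters outside 100-1000 RFU were removed.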
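Also: ATP exposure 15 min at 22 °C before imaging.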

Sequence | switch fluorescence ratio
TAATTCCAA | 0.984
GTCAGGTATT | 0.984
TAGGGGTGA | 1.02
TGATTTCGGG | 1
AGTTTTTGTA | 0.985
TCGTTTAAAC | 1.04
TCTTGGAAGC | 0.982
CTCTGGCGCG | 1.02
CGATATGACA | 1.01
TTGATAAAT | 1.01
TAAGATTGAA | 1
TGTTCAGGTT | 3.37
CTAAAAGTGG | 0.942
TAAGGGCGCT | 0.983
ACTTCGATGG | 0.967
TGCATAATGG | 1.01
TCACCAGCTC | 1.04
AAGATTGCAT | 0.985
TTCTGCGAAA | 1.01
GAGTGGCAGC | 0.962
TAAGAGACAG | 1.01
AAGCAACGCG | 0.983
GCTCAGGCTA | 1.04

Sequence | switch fluorescence ratio
TAAAACCAAA | 0.994
CTAGATGTCC | 1.03
AGTGGTGAAG | 0.972
GGTTGCTTTA | 1.01
AAGCCGAAAG | 1.01
AAGCAATCA | 1.35
CAAATAAGCA | 1.03
AAGATTTACG | 1.01
TTGAAAAGGG | 1.04
TGCCCTGGTT | 1.03
ATCCACTACC | 1.23
TATGTTCGAT | 0.991
TTCGGTCAG | 1.01
CGGTTTCGTA | 0.965
TTTAACTGGG | 1.07
ATGCGCCTCT | 1.05
GGTTTAAGT | 1.02
GGTAACACGT | 1
GTGGAGGTAA | 1.01
CAGAGTTGCT | 0.949
TAGTTTCTTA | 1.04
GATCCAGCGC | 1
AACGTCCGAA | 1.1

Sequence | switch fluorescence ratio
GGATTTTAAG | 1.02
AGCTCTGCAT | 1.39
GAGGACTTTT | 0.996
GCGATGTGTT | 1
TGAAATATTA | 1.04
AAAGGTGTTC | 1.2
CATCTTCACG | 0.954
TATTTGCGGA | 0.976
TGAGCATA | 1.08
AGCAGTTACA | 1.08
CGTTTAGC | 1.09
GCGTGCTTTT | 1.06
GGGATACTCA | 1.03
TGCGAGG | 1.05
TCGTGAAGTG | 0.976
CCACCTTTTA | 1.12
CATTTGGGGA | 0.994
AACACAATCA | 1.03
ATCGAAATTG | 0.962
GTGAGCGCAC | 1.01
CAGGGCCGGA | 0.965
TAACTCATTA | 1.03
GGCGTAAGAA | 0.983

Sequence | switch fluorescence ratio
CGTCCGGACT | 1.04
TAACTATACG | 1.24
TGGGTGGTAG | 0.975
CTACGCGCTT | 1.26
AAGTTACACA | 0.941
GCGCCTGGTG | 1.9
CGAAGGCCAA | 1.12
TTTATGAGTA | 0.98
CCACTTGGAA | 0.931
AAGGGTAGCC | 0.965
GACCAAGCTA | 1.17
GTCAATGTC | 1.04
GCGGGCACGT | 0.969
CCGGATAGG | 1.04
AGAGGAGTGG | 0.935
TATGGCCATC | 1
GCGCCATTGC | 1.2
AACAGTTAGA | 1.03
CCCTTAGCCA | 0.997
AGAATCAC | 1.09
TCTCGGGGAT | 1.04
CAAAACTTCG | 1.27
AAGTTCTTGG | 1.02

Sequence | switch fluorescence ratio
AATTTAGTGA | 0.9
AAATTATATC | 1.01
GCCCCCGGTT | 1.23
CAAAAAGATA | 1
GATGGAAAC | 1.08
CTGTACTAAC | 1.16
ACGTCTGGCA | 1.03
TTACGTTCGG | 0.998
TGGGAGTCTT | 1.02
TGTGGTCATG | 1.01
TGAAAAGGCA | 1.03
TACTACCCTT | 1.21
GGAGCATTCG | 1.67
ATACCGCGAA | 1.8
GCAAATAGCC | 1.09
TTGGGCTAGT | 0.952
ACCAAGTCAA | 1.07
CGTGCTAAAC | 1.23
CCCGGTCCTG | 1.03
CCTGGCACTA | 1.85
GCCTATTTCA | 1.01
TTGTGTCACA | 1.03
GCTCCCTATA | 2.27

Sequence | switch fluorescence ratio
ACCAGTCCCG | 1.08
AATGTTGAT | 0.989
AATGTAGTGT | 0.998
TCACATTACC | 1.35
TTTTTGGAT | 0.989
CACGCAGTCG | 1.05
CAATCGGTTG | 0.981
AGAAGTGTCA | 0.978
TCTAAGAATT | 1.02
CGGACGGCTA | 1.08
AAGCGGCTGG | 0.988
TTTGTGGCGC | 0.937
AACGGAGCGT | 1.09
AGGGAATCGC | 1.03
CACGGACGGT | 1.39
CTGCCCGGGC | 1.03
GAGGTTACCG | 1.11
TGTTTGCATT | 1.01
ATATTATCTT | 0.956
AGGGACCACC | 1.05
GATATGTAGG | 1.03
AATCGGAGT | 1.01
TTGCGATCG | 1.01

Sequence | switch fluorescence ratio
TAGTGCCCAT | 0.987
GATTGGTGTA | 1.02
TCGATCTAAG | 0.956
TTTCTTTGCT | 0.991
TGCGAGTCAA | 1.08
GGAAAGGTGC | 1.38
AGTATAATCC | 1
GCGATGTCGC | 1.05
GATGTCGCAA | 2.74
CTACGTTAAG | 1.07
TCTCTTCAGG | 1.08
CCTAGGTCAC | 1.06
ATCTACCAAC | 1.15
TAGGAAGATA | 0.993
TACTGATTAA | 1.02
TGAATGGCTC | 1.01
ATACCGAGAA | 1.02
ATGTGAGGCA | 0.975
ATTATGCAAG | 0.997
GGGATATATC | 1.02
